{
  "source": "the supplement of paper PMC8728848",
  "binders": {"B1": {"name": "CAA (Caragana arborescens) (protein)", "chain": "VAVEFDTFDNPDWDPRTKHIGIDVNSIRSNKTTQWGFWNRQVADVDISYEASSKTLNVSLYYPGESYIVTDVVDLKDILPEWVRIGF"}},
  "assay_in_all_cases": "glycan array binding signal (z-score within array); higher = stronger binding",
  "conditions_in_all_cases": "glycan notation: IUPAC condensed, linker removed",
  "key": {"[1]": {"molecular_target": "Gal(b1-4)GlcNAc(b1-2)Man(a1-6)[GlcNAc(b1-2)Man(a1-3)]Man(b1-4)GlcNAc(b1-4)GlcNAc", "how_it_was_run": "(§1)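 Glycan array data came from 3228 arrays in the Consortium for Functional Glycomics database, and only arrays with an available protein sequence were kept. Glycan names were put into IUPAC-condensed notation, and columns mapping to the same glycan were averaged. The binding signal is a within-array Z-score, averaged across arrays of one protein sequence run at different concentrations or buffers and across linkers. A negative Z-score can be read as non-binding.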"}, "[2]": {"molecular_target": "Gal(b1-4)GlcNAc(b1-2)Man(a1-6)[Man(a1-3)]Man(b1-4)GlcNAc(b1-4)GlcNAc", "how_it_was_run": "as §1"}, "[3]": {"molecular_target": "Gal(b1-4)GlcNAc(b1-2)[Gal(b1-4)GlcNAc(b1-4)]Man(a1-3)[Gal(b1-4)GlcNAc(b1-2)Man(a1-6)]Man(b1-4)GlcNAc(b1-4)GlcNAc", "how_it_was_run": "as §1"}, "[4]": {"molecular_target": "Gal(b1-4)GlcNAc(b1-2)[Gal(b1-4)GlcNAc(b1-4)]Man(a1-3)[Gal(b1-4)GlcNAc(b1-2)[Gal(b1-4)GlcNAc(b1-6)]Man(a1-6)]Man(b1-4)GlcNAc(b1-4)GlcNAc", "how_it_was_run": "as §1"}, "[5]": {"molecular_target": "Gal(b1-4)GlcNAc(b1-2)[Gal(b1-4)GlcNAc(b1-4)]Man(a1-3)[GlcNAc(b1-4)][Gal(b1-4)GlcNAc(b1-2)Man(a1-6)]Man(b1-4)GlcNAc(b1-4)GlcNAc", "how_it_was_run": "as §1"}, "[6]": {"molecular_target": "Gal(b1-4)GlcNAc(b1-2)[Gal(b1-4)GlcNAc(b1-4)]Man(a1-3)[GlcNAc(b1-4)][Gal(b1-4)GlcNAc(b1-2)[Gal(b1-4)GlcNAc(b1-6)]Man(a1-6)]Man(b1-4)GlcNAc(b1-4)GlcNAc", "how_it_was_run": "as §1"}, "[7]": {"molecular_target": "Gal(b1-4)GlcNAc(b1-2)[Gal(b1-4)GlcNAc(b1-6)]Man(a1-6)[Gal(b1-4)GlcNAc(b1-2)Man(a1-3)]Man(b1-4)GlcNAc(b1-4)GlcNAc", "how_it_was_run": "as §1"}, "[8]": {"molecular_target": "Gal(b1-4)GlcNAc(b1-2)[Gal(b1-4)GlcNAc(b1-6)]Man(a1-6)[Gal(b1-4)GlcNAc(b1-2)Man(a1-3)]Man(b1-4)GlcNAc(b1-4)[Fuc(a1-6)]GlcNAc", "how_it_was_run": "as §1"}, "[9]": {"molecular_target": "Gal(b1-4)GlcNAc(b1-2)[Gal(b1-4)GlcNAc(b1-6)]Man(a1-6)[GlcNAc(b1-4)][Gal(b1-4)GlcNAc(b1-2)Man(a1-3)]Man(b1-4)GlcNAc(b1-4)GlcNAc", "how_it_was_run": "as §1"}, "[10]": {"molecular_target": "Gal(b1-4)GlcNAc(b1-2)[Gal(b1-4)GlcNAc(b1-6)]Man(a1-6)[GlcNAc(b1-4)][Gal(b1-4)GlcNAc(b1-2)[Gal(b1-4)GlcNAc(b1-4)]Man(a1-3)]Man(b1-4)GlcNAc(b1-4)[Fuc(a1-6)]GlcNAc", "how_it_was_run": "as §1"}, "[11]": {"molecular_target": "Gal(b1-4)GlcNAc(b1-3)Gal(b1-3)GalNAc", "how_it_was_run": "as §1"}, "[12]": {"molecular_target": "Gal(b1-4)GlcNAc(b1-3)Gal(b1-3)GlcNAc", "how_it_was_run": "as §1"}, "[13]": {"molecular_target": "Gal(b1-4)GlcNAc(b1-3)Gal(b1-4)Glc", "how_it_was_run": "as §1"}, "[14]": {"molecular_target": "Gal(b1-4)GlcNAc(b1-3)Gal(b1-4)GlcNAc", "how_it_was_run": "as §1"}, "[15]": {"molecular_target": "Gal(b1-4)GlcNAc(b1-3)Gal(b1-4)GlcNAc(b1-2)Man(a1-3)[Gal(b1-4)GlcNAc(b1-3)Gal(b1-4)GlcNAc(b1-2)Man(a1-6)]Man(b1-4)GlcNAc(b1-4)GlcNAc", "how_it_was_run": "as §1"}, "[16]": {"molecular_target": "Gal(b1-4)GlcNAc(b1-3)Gal(b1-4)GlcNAc(b1-2)Man(a1-3)[Gal(b1-4)GlcNAc(b1-3)Gal(b1-4)GlcNAc(b1-2)Man(a1-6)]Man(b1-4)GlcNAc(b1-4)[Fuc(a1-6)]GlcNAc", "how_it_was_run": "as §1"}, "[17]": {"molecular_target": "Gal(b1-4)GlcNAc(b1-3)Gal(b1-4)GlcNAc(b1-2)[Gal(b1-4)GlcNAc(b1-3)Gal(b1-4)GlcNAc(b1-6)]Man(a1-6)[Gal(b1-4)GlcNAc(b1-3)Gal(b1-4)GlcNAc(b1-2)Man(a1-3)]Man(b1-4)GlcNAc(b1-4)GlcNAc", "how_it_was_run": "as §1"}, "[18]": {"molecular_target": "Gal(b1-4)GlcNAc(b1-3)Gal(b1-4)GlcNAc(b1-2)[Gal(b1-4)GlcNAc(b1-3)Gal(b1-4)GlcNAc(b1-6)]Man(a1-6)[Gal(b1-4)GlcNAc(b1-3)Gal(b1-4)GlcNAc(b1-2)Man(a1-3)]Man(b1-4)GlcNAc(b1-4)[Fuc(a1-6)]GlcNAc", "how_it_was_run": "as §1"}, "[19]": {"molecular_target": "Gal(b1-4)GlcNAc(b1-3)Gal(b1-4)GlcNAc(b1-3)Gal(b1-4)GlcNAc", "how_it_was_run": "as §1"}, "[20]": {"molecular_target": "Gal(b1-4)GlcNAc(b1-3)Gal(b1-4)GlcNAc(b1-3)Gal(b1-4)GlcNAc(b1-2)Man(a1-3)[Gal(b1-4)GlcNAc(b1-3)Gal(b1-4)GlcNAc(b1-3)Gal(b1-4)GlcNAc(b1-2)Man(a1-6)]Man(b1-4)GlcNAc(b1-4)GlcNAc", "how_it_was_run": "as §1"}, "[21]": {"molecular_target": "Gal(b1-4)GlcNAc(b1-3)Gal(b1-4)GlcNAc(b1-3)Gal(b1-4)GlcNAc(b1-2)Man(a1-3)[Gal(b1-4)GlcNAc(b1-3)Gal(b1-4)GlcNAc(b1-3)Gal(b1-4)GlcNAc(b1-2)Man(a1-6)]Man(b1-4)GlcNAc(b1-4)[Fuc(a1-6)]GlcNAc", "how_it_was_run": "as §1"}, "[22]": {"molecular_target": "Gal(b1-4)GlcNAc(b1-3)Gal(b1-4)GlcNAc(b1-3)Gal(b1-4)GlcNAc(b1-2)[Gal(b1-4)GlcNAc(b1-3)Gal(b1-4)GlcNAc(b1-3)Gal(b1-4)GlcNAc(b1-6)]Man(a1-6)[Gal(b1-4)GlcNAc(b1-3)Gal(b1-4)GlcNAc(b1-3)Gal(b1-4)GlcNAc(b1-2)Man(a1-3)]Man(b1-4)GlcNAc(b1-4)[Fuc(a1-6)]GlcNAc", "how_it_was_run": "as §1"}},
  "note": "The list shows a part of the results.",
  "data": [
    {"binder": "B1", "values": [
      {"measurement": "glycan array binding signal (z-score)", "setting": "[1]", "result": 5.87},
      {"measurement": "glycan array binding signal (z-score)", "setting": "[2]", "result": 0.121},
      {"measurement": "glycan array binding signal (z-score)", "setting": "[3]", "result": 3.5},
      {"measurement": "glycan array binding signal (z-score)", "setting": "[4]", "result": 3.15},
      {"measurement": "glycan array binding signal (z-score)", "setting": "[5]", "result": -0.239},
      {"measurement": "glycan array binding signal (z-score)", "setting": "[6]", "result": -0.252},
      {"measurement": "glycan array binding signal (z-score)", "setting": "[7]", "result": -0.049},
      {"measurement": "glycan array binding signal (z-score)", "setting": "[8]", "result": 0.097},
      {"measurement": "glycan array binding signal (z-score)", "setting": "[9]", "result": -0.25},
      {"measurement": "glycan array binding signal (z-score)", "setting": "[10]", "result": -0.245},
      {"measurement": "glycan array binding signal (z-score)", "setting": "[11]", "result": -0.248},
      {"measurement": "glycan array binding signal (z-score)", "setting": "[12]", "result": -0.232},
      {"measurement": "glycan array binding signal (z-score)", "setting": "[13]", "result": -0.232},
      {"measurement": "glycan array binding signal (z-score)", "setting": "[14]", "result": -0.243},
      {"measurement": "glycan array binding signal (z-score)", "setting": "[15]", "result": -0.137},
      {"measurement": "glycan array binding signal (z-score)", "setting": "[16]", "result": -0.199},
      {"measurement": "glycan array binding signal (z-score)", "setting": "[17]", "result": -0.243},
      {"measurement": "glycan array binding signal (z-score)", "setting": "[18]", "result": -0.242},
      {"measurement": "glycan array binding signal (z-score)", "setting": "[19]", "result": -0.25},
      {"measurement": "glycan array binding signal (z-score)", "setting": "[20]", "result": -0.165},
      {"measurement": "glycan array binding signal (z-score)", "setting": "[21]", "result": -0.233},
      {"measurement": "glycan array binding signal (z-score)", "setting": "[22]", "result": -0.245}
    ]}
  ]
}
